Source: the supplement of paper PMC9262897, “Low-cost anti-mycobacterial drug discovery using engineered E. coli” (Nature Communications, 2022)
Further values from the same series stand in other lists.

Experiments:
[1] = test system: E. coli TESEC strain (Mtb target enzyme); test: growth (OD600 after 10 h); higher = more growth
Method: (§1)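 Chemical-genetic validation profiles: TESEC strains (Mtb Asd or DapB, arabinose-inducible) or the wild-type control grown in a two-dimensional dilution series of drug (µM) and arabinose. Growth is read as OD600 after 10 h in triplicate.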

[2] = test system: E. coli wild-type control; test: growth (OD600 after 10 h); higher = more growth
Method: as §1

N=C(N)c1ccc(OCCCCCOc2ccc(C(=N)N)cc2)cc1 [Pentamidine] (TESEC target enzyme: Mtb DapB)
growth
Details | drug 3.5 µM | drug 7.8 µM | drug 17.6 µM | drug 39.5 µM | drug 88.9 µM | drug 200 µM
[1], arabinose 15560 nM | 0.102 | 0.137 | 0.0988 | 0.139 | 0.066 | 0.0484
[1], arabinose 28008 nM | 0.185 | 0.171 | 0.146 | 0.103 | 0.0733 | 0.0485
[1], arabinose 50414 nM | 0.198 | 0.167 | 0.16 | 0.106 | 0.056 | 0.0472
[1], arabinose 90744 nM | 0.183 | 0.183 | 0.157 | 0.175 | 0.056 | 0.0495
[1], arabinose 163340 nM | 0.216 | 0.189 | 0.184 | 0.157 | 0.0582 | 0.0488
[1], arabinose 294012 nM | 0.239 | 0.216 | 0.209 | 0.173 | 0.0684 | 0.0485
[1], arabinose 529221 nM | 0.251 | 0.248 | 0.218 | 0.162 | 0.0683 | 0.0494
[1], arabinose 952599 nM | 0.252 | 0.192 | 0.18 | 0.202 | 0.102 | 0.05
[1], arabinose 1714678 nM | 0.184 | 0.23 | 0.214 | 0.198 | 0.127 | 0.0486
[1], arabinose 3086420 nM | 0.154 | 0.136 | 0.139 | 0.17 | 0.15 | 0.0575
[1], arabinose 5555556 nM | 0.138 | 0.134 | 0.14 | 0.13 | 0.142 | 0.053
[1], arabinose 10000000 nM | 0.146 | 0.127 | 0.155 | 0.141 | 0.143 | 0.0592
[2], arabinose 15560 nM | – | – | – | – | 0.185 | 0.066
[2], arabinose 28008 nM | – | – | – | – | 0.189 | 0.0558
[2], arabinose 50414 nM | – | – | – | – | 0.155 | 0.0573
[2], arabinose 90744 nM | – | – | – | – | 0.21 | 0.0557
[2], arabinose 163340 nM | – | – | – | – | 0.185 | 0.0557
[2], arabinose 294012 nM | – | – | – | – | 0.198 | 0.0579
[2], arabinose 529221 nM | – | – | – | – | 0.178 | 0.0639
[2], arabinose 952599 nM | – | – | – | – | – | 0.053
[2], arabinose 1714678 nM | – | – | – | – | – | 0.0555
[2], arabinose 3086420 nM | – | – | – | – | – | 0.0637
[2], arabinose 5555556 nM | – | – | – | – | – | 0.053
[2], arabinose 10000000 nM | – | – | – | – | 0.159 | 0.0674

Nc1nc2ccc(OC(F)(F)F)cc2s1 [Riluzole] (TESEC target enzyme: Mtb Asd)
growth
Details | drug 8.7 µM | drug 19.5 µM | drug 43.9 µM | drug 98.8 µM | drug 222.2 µM | drug 500 µM
[1], arabinose 15560 nM | 0.158 | 0.176 | 0.157 | 0.153 | 0.173 | 0.172
[1], arabinose 28008 nM | 0.138 | 0.299 | 0.135 | 0.147 | 0.174 | 0.146
[1], arabinose 50414 nM | 0.126 | 0.153 | 0.151 | 0.148 | 0.178 | 0.132
[1], arabinose 90744 nM | 0.163 | 0.148 | 0.121 | 0.127 | 0.189 | 0.169
[1], arabinose 163340 nM | 0.18 | 0.162 | 0.145 | 0.147 | 0.168 | 0.173
[1], arabinose 294012 nM | 0.225 | 0.167 | 0.17 | 0.162 | 0.167 | 0.169
[1], arabinose 529221 nM | 0.166 | 0.161 | 0.185 | 0.155 | 0.223 | 0.222
[1], arabinose 952599 nM | 0.266 | 0.256 | 0.225 | 0.176 | 0.146 | 0.1619
[1], arabinose 1714678 nM | 0.284 | 0.314 | 0.26 | 0.172 | 0.151 | 0.164
[1], arabinose 3086420 nM | 0.241 | 0.355 | 0.248 | 0.235 | 0.173 | 0.158
[1], arabinose 5555556 nM | 0.208 | 0.261 | 0.236 | 0.266 | 0.177 | 0.152
[1], arabinose 10000000 nM | 0.217 | 0.213 | 0.194 | 0.254 | 0.181 | 0.156
[2], arabinose 15560 nM | – | – | – | – | 0.123 | 0.0661
[2], arabinose 28008 nM | – | – | – | – | 0.118 | 0.04837
[2], arabinose 50414 nM | – | – | – | – | 0.123 | 0.0606
[2], arabinose 90744 nM | – | – | – | – | 0.127 | 0.0496
[2], arabinose 163340 nM | – | – | – | – | 0.111 | 0.0625
[2], arabinose 294012 nM | – | – | – | – | 0.114 | 0.06
[2], arabinose 529221 nM | – | – | – | – | 0.113 | 0.117
[2], arabinose 952599 nM | – | – | – | – | – | 0.0654
[2], arabinose 1714678 nM | – | – | – | – | – | 0.0483
[2], arabinose 3086420 nM | – | – | – | – | – | 0.0773
[2], arabinose 5555556 nM | – | – | – | – | – | 0.0675
[2], arabinose 10000000 nM | – | – | – | – | 0.149 | 0.0863

CC/C(=C(/CC)c1ccc(O)cc1)c1ccc(O)cc1 [Diethylstilbestrol] (TESEC target enzyme: Mtb Asd)
growth
Details | drug 3.5 µM | drug 7.8 µM | drug 17.6 µM | drug 39.5 µM | drug 88.9 µM | drug 200 µM
[1], arabinose 15560 nM | 0.169 | 0.0885 | 0.107 | 0.0526 | 0.0483 | 0.0579
[1], arabinose 28008 nM | 0.182 | 0.108 | 0.0596 | 0.0727 | 0.0757 | 0.0675
[1], arabinose 50414 nM | 0.168 | 0.119 | 0.0598 | 0.0487 | 0.079 | 0.0583
[1], arabinose 90744 nM | 0.19 | 0.115 | 0.0706 | 0.0471 | 0.0596 | 0.0717
[1], arabinose 163340 nM | 0.19 | 0.151 | 0.0771 | 0.106 | 0.0785 | 0.0511
[1], arabinose 294012 nM | 0.206 | 0.171 | 0.127 | 0.0463 | 0.0716 | 0.0542
[1], arabinose 529221 nM | 0.201 | 0.149 | 0.156 | 0.0571 | 0.0743 | 0.0619
[1], arabinose 952599 nM | 0.221 | 0.202 | 0.11 | 0.083 | 0.0474 | 0.0584
[1], arabinose 1714678 nM | 0.196 | 0.193 | 0.0842 | 0.0503 | 0.049 | 0.0483
[1], arabinose 3086420 nM | 0.204 | 0.184 | 0.0877 | 0.105 | 0.081 | 0.0783
[1], arabinose 5555556 nM | 0.198 | 0.186 | 0.0844 | 0.0563 | 0.0535 | 0.0772
[1], arabinose 10000000 nM | 0.169 | 0.162 | 0.109 | 0.0863 | 0.0659 | 0.0545
[2], arabinose 15560 nM | – | – | – | – | 0.0914 | 0.0668
[2], arabinose 28008 nM | – | – | – | – | 0.0574 | 0.0592
[2], arabinose 50414 nM | – | – | – | – | 0.0853 | 0.088
[2], arabinose 90744 nM | – | – | – | – | 0.09 | 0.0748
[2], arabinose 163340 nM | – | – | – | – | 0.104 | 0.053
[2], arabinose 294012 nM | – | – | – | – | 0.0493 | 0.103
[2], arabinose 529221 nM | – | – | – | – | 0.104 | 0.104
[2], arabinose 952599 nM | – | – | – | – | – | 0.102
[2], arabinose 1714678 nM | – | – | – | – | – | 0.0773
[2], arabinose 3086420 nM | – | – | – | – | – | 0.0894
[2], arabinose 5555556 nM | – | – | – | – | – | 0.0665
[2], arabinose 10000000 nM | – | – | – | – | 0.0798 | 0.084
